# Several values for one entry are separate records, joined by “and”; a condition that tells them apart may be missing. Identical values can stand only once. Screen size: about 340,000 compounds; about 12,000 (3.5%) were called active. This list was built around the results that the source calls inconclusive (neither active nor inactive); the mix of calls is not that of the screen. Calls come from the whole dose curve; as a rule, active = well fitted inhibition curve with a large enough effect; inconclusive = small, poorly fitted or top-dose-only effect, or another doubt; inactive = no such curve, though single readings can be large or run the other way. Where the call is inconclusive, the potency comes from a doubtful curve fit.
# Assay: qHTS Assay for Inhibitors of Hepatitis C Virus (HCV)
# Conditions: Huh7.5.1 HCVcc-Cre (HCVcc is cell-culture hepatitis C virus) infection, luciferase reporter, 44 h; activity change, negative = inhibition: at 41.8 µM (top of the series) unless noted
# Procedure, shortened: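 Cells seeded at 1,000/well and cultured 4 h, then compounds added followed by HCVcc-Cre virus (~0.5 moi). After 44 h further culture, luciferase substrate was added, plates held 15 min at room temperature, and luminescence read for 15 sec.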
# % is set by controls: 0 for no effect and ±100 for the full control effect; potency is the fitted concentration of half-maximal effect; tags give direction and shape of the fitted curve.
SMILES,Potency,"activity change, negative = inhibition"
Cc1ccc(C)c(-c2cc(C(=O)Nc3sc(C)c(C)c3C(N)=O)c3ccccc3n2)c1,active: 11.2 µM,–
O=S(=O)(NCc1ccccc1)c1ccc(-c2cnc(C3CC3)o2)cc1,"inconclusive: 12.6 µM [inhibitor, single point]",–
CCN(CC)CCCNC(=O)CCC(=O)Nc1ccc2nc(N3CCC(C)CC3)cc(C)c2c1,"inconclusive: 31.6 µM [inhibitor, single point]",–
Cc1ccc(C(=O)Nc2ccccc2C(=O)Nc2ccccn2)cc1Cl,"inconclusive: 20 µM [inhibitor, single point]",–
COc1ccccc1-c1cc(C(=O)N2CCCCC2)no1,"inconclusive: 31.6 µM [inhibitor, single point]",–
CCOC(=O)c1sc(NC(=O)C2CC(=O)N(c3ccc(OC)cc3)C2)nc1C (stereo not given),inactive,–
Cc1nc2cc(NC(=O)CS(=O)(=O)c3ccccc3)ccc2s1,"inconclusive: 1.78 µM [inhibitor, partial curve]",–
O=C(CSc1n[nH]c(=O)n1Cc1ccccc1)Nc1ccc(F)c(F)c1F,"inconclusive: 10 µM [inhibitor, single point]",–
CCCOc1ccc(NC(=O)CC2C(=O)N(C)C(=S)N2Cc2cccs2)cc1 (stereo not given),"inconclusive: 7.94 µM [inhibitor, partial curve]",–
COc1ccc(/C(CC2OC(=O)c3ccccc32)=N\NC(N)=O)cc1 (stereo not given),inactive,–
Cn1c(=O)c(C(=O)NNC(=O)c2ccccc2Br)c(O)c2ccccc21,inactive,–
CN1CCN(S(=O)(=O)c2ccc(N(C)Cc3ccc(OC(F)F)cc3)c([N+](=O)[O-])c2)CC1,active: 11.2 µM,–
CCCCCCOc1ccc(/C(C)=N/NC2=NCCN2)cc1[N+](=O)[O-],active: 31.6 µM,–
CC(C)(C#N)NC(=O)C1CCCN1S(=O)(=O)c1ccc2ccccc2c1 (stereo not given),"inconclusive: 22.4 µM [inhibitor, single point]",–
Cc1cccc(N=Nc2ccc(N(C)C)cc2)c1,inactive,–
O=c1c2c([nH]n1-c1ccccc1)CCCC2,inactive,–
Cc1ccccc1OCC(O)Cn1c(NCc2ccco2)nc2c1c(=O)n(C)c(=O)n2C (stereo not given),"inconclusive: 17.8 µM [inhibitor, partial curve, poor fit]",–
Cc1onc(-c2ccccc2)c1C(=O)Nc1nc(-c2ccccc2)cs1,"inconclusive: 22.4 µM [inhibitor, single point]",–
Cc1nc(NC(=O)C(C)Oc2cccc(Cl)c2)sc1C(=O)N(C)C (stereo not given),"inconclusive: 31.6 µM [inhibitor, single point]",–
COc1cc(CNCCCN2CCOCC2)cc(Br)c1OCC(=O)N1CCCCC1,"inconclusive: 35.5 µM [inhibitor, single point]",–
O=S1(=O)Nc2c(ccc3cccnc23)-c2ccccc21,"inconclusive: 1.12 µM [inhibitor, full curve]",–
Oc1[nH]c2ccccc2c1N=NC(=S)NCC1CCCO1 (stereo not given),"inconclusive: 7.94 µM [inhibitor, partial curve]",–
Cc1ccc(-c2csc(-c3c[nH]c4ccccc34)n2)c(C)c1,"inconclusive: 28.2 µM [inhibitor, partial curve]",–

SMILES,Potency,"activity change, negative = inhibition"
COc1cc2c(cc1NC(=O)CN(C)Cc1nc3ccccc3c(=O)[nH]1)oc1ccccc12,"inconclusive: 0.501 µM [inhibitor, full curve, poor fit]",–
CN(C)C(=O)CSc1nc(-c2ccccc2)c(-c2ccccc2)o1,"inconclusive: 31.6 µM [inhibitor, single point]",–
O=C(Nc1ccc(N2CCN(C(=O)c3cccs3)CC2)cc1)c1ccccc1Cl,"inconclusive: 10 µM [inhibitor, partial curve, poor fit]",–
Clc1cccc(CN2C3=NCCCN3c3ccccc32)c1,"inconclusive: 28.2 µM [inhibitor, single point]",–
CCCCNc1nc2c(c(=O)[nH]c(=O)n2C)n1CCOc1ccccc1,inactive,–
Cc1ccccc1NC(=O)N1CCCC(c2nc(-c3ccc(C(C)C)cc3)no2)C1 (stereo not given),active: 12.6 µM,–
Cc1cccc(-[n+]2c(-c3cccc(Br)c3)[nH]c3nc4ccccc4nc32)c1,–,inconclusive: -37.8% [inhibitor]
CCCn1c(C)c(C(=O)c2cccc3ccccc23)c2ccccc21,"inconclusive: 2 µM [inhibitor, partial curve]",–
O=c1oc(C2(O)CCCCC2)cc2ccccc12,inactive,–
CC(C)CCNC(=O)C1CCCN(S(=O)(=O)c2ccc3c(c2)CC(C)N3C(=O)C2CC2)C1 (stereo not given),inactive,–
COc1cccc(NC(=O)C(=O)NCCC2CCCCN2S(=O)(=O)c2cccs2)c1 (stereo not given),"inconclusive: 4.47 µM [inhibitor, full curve, poor fit]",–
Cc1cc(NC(=O)CSc2nc3c(C)cccc3cc2C#N)no1,"inconclusive: 4.47 µM [inhibitor, full curve, poor fit]",–
CCN(CC)CCN(C(=O)/C=C/c1cccs1)c1nc2ccc(C)cc2s1,"inconclusive: 1.41 µM [inhibitor, partial curve]",–
C=CC(=O)Nc1sc2c(c1C(N)=O)CCCC2,"inconclusive: 22.4 µM [inhibitor, single point]",–
CC(Nc1nc(N2CCCC2)nc2ccccc12)c1ccccc1 (stereo not given),active: 10 µM,–
O=c1cc(NC2CCCCC2)c2ccccc2o1,"inconclusive: 8.91 µM [inhibitor, partial curve, poor fit]",–
COc1ccc(S(=O)(=O)NCc2ccc3c(c2)OCO3)cc1C,inactive,–
CC1(C)OC(C)(C)/C(=C/Nc2ccc(O)cc2)C1=O,inactive,–
COc1ccc(N2C(=O)CSC2c2ccccc2F)c(OC)c1 (stereo not given),inactive,–
CC1(NC(=O)CC(c2ccccc2)(c2ccccc2)c2ccccc2)CCN(CCCc2ccccc2)C1=O (stereo not given),"inconclusive: 11.2 µM [inhibitor, partial curve]",–
COc1cc2cc(C(c3nnnn3C3CCCC3)N(C)C3CCCCC3)c(=O)[nH]c2cc1OC (stereo not given),"inactive and inconclusive: 28.2 µM [inhibitor, single point]",–
CCCn1nc2cc(C(=O)NC3CCc4ccccc43)ccc2c1OCC (stereo not given),"inconclusive: 2.24 µM [inhibitor, full curve, poor fit]",–

# Reference: PubChem BioAssay AID651820 (National Center for Advancing Translational Sciences (NCATS), 2012)
